The target in the test is equal amounts of hIL-1α and hIL-1β added together. The test can be described thus: cell-based or functional assay.

B1: hIL-1a/bDVD2-Ig (bispecific antibody, human IgG1, kappa)
heavy: QVQLQQSGAELVRPGSSVKISCKASGYAFSSYWMNWVKQRPGQGLEWIGQIYPGDGDTNYNGKFKGKATLTADKSSSTSYMQLSGLTSEDSAMYFCVRFPTGNDYYAMDYWGQGTSVTVSSAKTTPPQIQLVQSGPELKKPGETVKISCKASGYTFRNYGMNWVKQAPGKDLKRMAWINTYTGESTYADDFKGRFAFSLETSASTAYLQINNLKNEDTATYFCARGIYYYGSSYAMDYWGQGTSVTVSS[no letters for human IgG1 constant region]
light: NIVLTQSPASLAVSLGQRATISCRASESVDSYGNSYMHWYQQKPGQPPKLLIYLASNLESGVPARFSGSGSRTDFTLTIDPVEADDAATYYCQQNNEDPFTFGSGTKLEIKRADAAPNIQMTQTTSSLSASLGDRVTISCRASQDISNCLNWYQQKPDGTVKLLIYYTSRLHSGVPSRFSGSGSGTDYSLTISNLEQEDIATYFCQQGKTLPYAFGGGTKLEINRTVAAPSVFIFPPSDEQLKSGTASVVCLLNNFYPREAKVQWKVDNALQSGNSQESVTEQDSKDSTYSLSSTLTLSKADYEKHKVYACEVTHQGLSSPVTKSFNRGEC
The molecule B1 showed a dual-inhibition activity, IL-8 synthesis by MRC-5 cells with both hIL-1α and hIL-1β present of 1.2 nM.

B2: hIL-1a/bDVD1-Ig (bispecific antibody, human IgG1, kappa)
heavy: QVQLQQSGAELVRPGSSVKISCKASGYAFSSYWMNWVKQRPGQGLEWIGQIYPGDGDTNYNGKFKGKATLTADKSSSTSYMQLSGLTSEDSAMYFCVRFPTGNDYYAMDYWGQGTSVTVSSQIQLVQSGPELKKPGETVKISCKASGYTFRNYGMNWVKQAPGKDLKRMAWINTYTGESTYADDFKGRFAFSLETSASTAYLQINNLKNEDTATYFCARGIYYYGSSYAMDYWGQGTSVTVSS[no letters for human IgG1 constant region]
light: NIVLTQSPASLAVSLGQRATISCRASESVDSYGNSYMHWYQQKPGQPPKLLIYLASNLESGVPARFSGSGSRTDFTLTIDPVEADDAATYYCQQNNEDPFTFGSGTKLEIKRNIQMTQTTSSLSASLGDRVTISCRASQDISNCLNWYQQKPDGTVKLLIYYTSRLHSGVPSRFSGSGSGTDYSLTISNLEQEDIATYFCQQGKTLPYAFGGGTKLEINRTVAAPSVFIFPPSDEQLKSGTASVVCLLNNFYPREAKVQWKVDNALQSGNSQESVTEQDSKDSTYSLSSTLTLSKADYEKHKVYACEVTHQGLSSPVTKSFNRGEC
Turning to B2, the dual-inhibition activity, IL-8 synthesis by MRC-5 cells with both hIL-1α and hIL-1β present was 2.2 nM.

For the origin of these results see EP2495257A2.
